Results on 13 compounds are retold here after patent publication US20130184251A1, “HETEROAROMATIC AND AROMATIC PIPERAZINYL AZETIDINYL AMIDES AS MONOACYLGLYCEROL LIPASE INHIBITORS” (Janssen Pharmaceutica, NV, priority 2009, published 2013).

SMILES strings stand for the structures.

In test [1] the target is T1, purified mutant MGL (mut-MGLL 11-313 L179S L186S) (Homo sapiens, UniProt Q99685, L169S/L176S).
T1 sequence (Q99685 1-303 L169S/L176S): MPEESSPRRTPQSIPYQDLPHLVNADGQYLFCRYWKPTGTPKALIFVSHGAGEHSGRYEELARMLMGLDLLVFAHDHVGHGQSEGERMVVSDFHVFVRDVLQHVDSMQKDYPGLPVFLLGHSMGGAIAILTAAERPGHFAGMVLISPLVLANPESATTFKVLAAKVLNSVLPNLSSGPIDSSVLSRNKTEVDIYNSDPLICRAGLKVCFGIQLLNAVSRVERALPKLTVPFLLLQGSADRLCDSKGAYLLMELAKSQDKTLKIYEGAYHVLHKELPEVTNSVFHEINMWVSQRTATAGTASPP
The experiment in a line: biochemical. Conditions: Ex. 3 (mutant) IC50, mutant MGL (mut-MGLL 11-313 L179S L186S).

The target in test [2] is T1, purified mutant MGL (mut-MGLL 11-313 L179S L186S). The experiment in a line: biochemical. Conditions: Ex. 4 Kd, ThermoFluor. In general terms: In DSF a fluorescence change marks the thermal transition of the protein.

Broadly, the IC50 is the concentration that inhibits the measured activity by half. A higher IC50 goes with weaker potency. In general, Kd refers to the equilibrium constant for the complex coming apart. Read a low Kd as a tighter complex.

As to `COc1ccc(-c2ccc(C(=O)N3CC(N4CCN(c5ccccn5)CC4)C3)o2)cc1` [compound 92, 1-(1-{[5-(4-Methoxyphenyl)furan-2-yl]carbonyl}azetidin-3-yl)-4-pyridin-2-ylpiperazine], the IC50 in test [1] was > 5 µM. The same compound returned a Kd in test [2] of 4.55 µM.
`N#Cc1ccc(N2CCN(C3CN(C(=O)c4ccc(C5CCCCC5)cc4)C3)CC2)nc1` [compound 93, 6-(4-{1-[(4-Cyclohexylphenyl)carbonyl]azetidin-3-yl}piperazin-1-yl)pyridine-3-carbonitrile] came in with an IC50 in test [1] of 5.11 µM. This compound also gave a Kd in test [2] of 2.86 µM.
In the case of `O=C(c1ccc([N+](=O)[O-])cc1)N1CC(N2CCN(c3ncccn3)CC2)C1` [compound 94, 2-(4-{1-[(4-Nitrophenyl)carbonyl]azetidin-3-yl}piperazin-1-yl)pyrimidine], the IC50 in test [1] came out at 5.4 µM. Moreover, in test [2], the Kd turned out to be 4 µM.
For the compound `O=C(/C=C/c1cccc(C(F)(F)F)c1)N1CC(N2CCN(c3ccccn3)CC2)C1` [compound 95, 1-Pyridin-2-yl-4-(1-{(2E)-3-[3-(trifluoromethyl)phenyl]prop-2-enoyl}azetidin-3-yl)piperazine], inhibition in test [1] was half-maximal at 5.45 µM (IC50). This compound yielded a Kd in test [2] of 4.19 µM.
For `O=C(c1cccc2c1Cc1ccccc1-2)N1CC(N2CCN(c3ccccn3)CC2)C1` [compound 96, 1-[1-(9H-Fluoren-1-ylcarbonyl)azetidin-3-yl]-4-pyridin-2-ylpiperazine], in that order: 5.6 µM and 15.2 µM.
For `O=C(c1ccc2c(c1)CCCN2)N1CC(N2CCN(c3ccccn3)CC2)C1` [compound 97, 6-{[3-(4-Pyridin-2-ylpiperazin-1-yl)azetidin-1-yl]carbonyl}-1,2,3,4-tetrahydroquinoline], in that order: 5.88 µM and 3.57 µM.
Compound `O=C(c1ccc(C2CCCCC2)cc1)N1CC(N2CCN(c3ncccc3I)CC2)C1` [compound 98, 1-{1-[(4-Cyclohexylphenyl)carbonyl]azetidin-3-yl}-4-(3-iodopyridin-2-yl)piperazine] gave an IC50 in test [1] of 6.03 µM. Moreover, the dissociation constant (Kd) in test [2] worked out at 5.56 µM.
On the same counts, the results for `O=C(c1ccc(-c2ccccc2)o1)N1CC(N2CCN(c3ccccn3)CC2)C1` [compound 99, 1-{1-[(5-Phenylfuran-2-yl)carbonyl]azetidin-3-yl}-4-pyridin-2-ylpiperazine] are 6.1 µM and 13 µM.
In test [1], `Cc1cccnc1N1CCN(C2CN(C(=O)c3ccc(C4CCCCC4)cc3)C2)CC1` [compound 100, 1-{1-[(4-Cyclohexylphenyl)carbonyl]azetidin-3-yl}-4-(3-methylpyridin-2-yl)piperazine] displayed a half-inhibitory concentration (IC50) of 6.5 µM. Moreover, in test [2], binding was put at a Kd of 6.67 µM.
On the same counts, the results for `O=C(c1ccc(-c2ccccc2)cc1)N1CC(N2CCN(c3ncccc3C(F)(F)F)CC2)C1` [compound 101, 1-[1-(Biphenyl-4-ylcarbonyl)azetidin-3-yl]-4-[3-(trifluoromethyl)pyridin-2-yl]piperazine] are 6.52 µM and 6.67 µM.
On the same counts, the results for `Cc1ccnc(N2CCN(C3CN(C(=O)c4ccc(-c5ccccc5)cc4)C3)CC2)c1` [compound 102, 1-[1-(Biphenyl-4-ylcarbonyl)azetidin-3-yl]-4-(4-methylpyridin-2-yl)piperazine] are 6.59 µM and 1.3 µM.
On the same counts, the results for `O=C(C(Cc1ccccc1)c1ccccc1)N1CC(N2CCN(c3ccccn3)CC2)C1` (centres unmarked) [compound 103, 1-[1-(2,3-Diphenylpropanoyl)azetidin-3-yl]-4-pyridin-2-ylpiperazine] are 9.43 µM and 45.6 µM.
In test [1], `O=C(c1ccc(C2CCCCC2)cc1)N1CC(N2CCN(c3nc4ccccc4s3)CC2)C1` [compound 104, 2-(4-{1-[(4-Cyclohexylphenyl)carbonyl]azetidin-3-yl}piperazin-1-yl)-1,3-benzothiazole] had an IC50 of 10.1 µM. The same compound displayed a Kd in test [2] of 22.2 µM.
